Experimental data published in patent US8067379B2, “Sulfur compounds as inhibitors of hepatitis C virus NS3 serine protease” (Schering Corporation, priority 2004, dated 2011).
pKi: −log10 of the molar value.

molecular target: Recombinant heterodimeric HCV NS3/NS4A protease (strain 1a) (Hepatitis C virus genotype 1a, UniProt P27958); assay: Spectrophotometric assay for HCV serine protease inhibitory activity (chromogenic ester substrates); assay type: biochemical; conditions: Table 3A; cells that print a number instead of a class symbol; read-out: Ki* Range

SMILES | pKi
C=CCNC(=O)C(=O)[C@H](CCCC)NC(=O)[C@@H]1[C@@H]2[C@H](CN1C(=O)[C@@H](NC(=O)NC1(C3COCCS3(=O)=O)CCCCC1)C(C)(C)C)C2(C)C (some centres unmarked) [Compound 883-w] | 8.52

same assay, conditions: Table 3A; class symbols; read-out: Ki* Range

SMILES | pKi
CC(C)(C)[C@H](NC(=O)NC1([C@H]2CCCS2(=O)=O)CCCCC1)C(=O)N1C[C@H]2[C@@H]([C@H]1C(=O)N[C@@H](CCC1CC1)C(=O)C(=O)NCCF)C2(C)C [Compound 883-eg] | > 7.12
CC(C)(C)[C@H](NC(=O)NC1([C@@H]2CCCS2(=O)=O)CCCCC1)C(=O)N1C[C@H]2[C@@H]([C@H]1C(=O)N[C@@H](CCC1CC1)C(=O)C(=O)NCCF)C2(C)C [Compound 883-eh] | > 7.12
CC1([C@H](NC(=O)NC2([C@H]3CCCS3(=O)=O)CCCCC2)C(=O)N2C[C@H]3[C@@H]([C@H]2C(=O)N[C@@H](CCC2CC2)C(=O)C(=O)NCCF)C3(C)C)CCCCC1 [Compound 883-ei] | > 7.12
CC1([C@H](NC(=O)NC2([C@@H]3CCCS3(=O)=O)CCCCC2)C(=O)N2C[C@H]3[C@@H]([C@H]2C(=O)N[C@@H](CCC2CC2)C(=O)C(=O)NCCF)C3(C)C)CCCCC1 [Compound 883-ej] | > 7.12
CCNC(=O)C(=O)[C@H](CCC1CC1)NC(=O)[C@@H]1[C@@H]2[C@H](CN1C(=O)[C@@H](NC(=O)NC1([C@H](C)S(=O)(=O)C(C)(C)C)CCCCC1)C(C)(C)C)C2(C)C [Compound 883-ek] | > 7.12
C[C@@H](C1(NC(=O)N[C@H](C(=O)N2C[C@H]3[C@@H]([C@H]2C(=O)N[C@@H](CCC2CC2)C(=O)C(=O)NC2CC2)C3(C)C)C(C)(C)C)CCCCC1)S(=O)(=O)C(C)(C)C [Compound 883-el] | > 7.12
C[C@@H](C1(NC(=O)N[C@H](C(=O)N2C[C@H]3[C@@H]([C@H]2C(=O)N[C@@H](CCC2CC2)C(=O)C(=O)NC2CC2)C3(C)C)C2(C)CCCCC2)CCCCC1)S(=O)(=O)C(C)(C)C [Compound 883-em] | > 7.12
CCCC[C@H](NC(=O)[C@@H]1[C@@H]2[C@H](CN1C(=O)[C@@H](NC(=O)NC1(C3OCC(C)(C)S3(=O)=O)CCCCC1)C1(C)CCCCC1)C2(C)C)C(=O)C(=O)NC1CC1 (some centres unmarked) [Compound 883-en] | > 7.12
CCCC[C@H](NC(=O)[C@@H]1[C@@H]2[C@H](CN1C(=O)[C@@H](NC(=O)NC1(C3OCC(C)(C)S3(=O)=O)CCCCC1)C1(C)CCCCC1)C2(C)C)C(=O)C(=O)NCC (some centres unmarked) [Compound 883-eo] | > 7.12
CCCC[C@H](NC(=O)[C@@H]1[C@@H]2[C@H](CN1C(=O)[C@@H](NC(=O)NC1([C@H]3OCC(C)(C)S3(=O)=O)CCCCC1)C(C)(C)C)C2(C)C)C(=O)C(=O)NCC [Compound 883-ep] | > 7.12
CCCC[C@H](NC(=O)[C@@H]1[C@@H]2[C@H](CN1C(=O)[C@@H](NC(=O)NC1([C@@H]3OCC(C)(C)S3(=O)=O)CCCCC1)C(C)(C)C)C2(C)C)C(=O)C(=O)NCC [Compound 883-eq] | > 7.12
CNC(=O)C(=O)[C@H](CC1CC1)NC(=O)[C@@H]1[C@@H]2[C@H](CN1C(=O)[C@@H](NC(=O)NC1([C@@H]3CCCS3(=O)=O)CCCCC1)C(C)(C)C)C2(C)C [Compound 883-er] | > 7.12
CCNC(=O)C(=O)C(CCC1CC1)NC(=O)[C@@H]1[C@@H]2[C@H](CN1C(=O)[C@@H](NC(=O)NC1([C@H]3CCCS3(=O)=O)CCCCC1)C(C)(C)C)C2(C)C (some centres unmarked) [Compound 883-es] | > 7.12
CNC(=O)C(=O)[C@H](CC1CC1)NC(=O)[C@@H]1[C@@H]2[C@H](CN1C(=O)[C@@H](NC(=O)NC1([C@H]3CCCS3(=O)=O)CCCCC1)C(C)(C)C)C2(C)C [Compound 883-et] | > 7.12
CCNC(=O)C(=O)C(CCC1CC1)NC(=O)[C@@H]1[C@@H]2[C@H](CN1C(=O)[C@@H](NC(=O)NC1([C@@H]3CCCS3(=O)=O)CCCCC1)C(C)(C)C)C2(C)C (some centres unmarked) [Compound 883-eu] | > 7.12
CNC(=O)C(=O)[C@@H](CC1CC1)NC(=O)[C@@H]1[C@@H]2[C@H](CN1C(=O)[C@@H](NC(=O)NC1(C3CCCS3(=O)=O)CCCCC1)C(C)(C)C)C2(C)C (some centres unmarked) [Compound 883-ev] | > 7.12
CNC(=O)C(=O)[C@H](CC1CC1)NC(=O)[C@@H]1[C@@H]2[C@H](CN1C(=O)[C@@H](NC(=O)NC1(C3CCCS3(=O)=O)CCCCC1)C1(C)CCCCC1)C2(C)C (some centres unmarked) [Compound 883-ew] | > 7.12
CNC(=O)C(=O)[C@H](CC1CC1)NC(=O)[C@@H]1[C@@H]2[C@H](CN1C(=O)[C@@H](NC(=O)NC1([C@H]3CCCS3(=O)=O)CCCCC1)C1(C)CCCCC1)C2(C)C [Compound 883-ex] | > 7.12
CNC(=O)C(=O)[C@H](CC1CC1)NC(=O)[C@@H]1[C@@H]2[C@H](CN1C(=O)[C@@H](NC(=O)NC1([C@@H]3CCCS3(=O)=O)CCCCC1)C1(C)CCCCC1)C2(C)C [Compound 883-ey] | > 7.12
CNC(=O)C(=O)[C@@H](CC1CC1)NC(=O)[C@@H]1[C@@H]2[C@H](CN1C(=O)[C@@H](NC(=O)NC1([C@H]3CCCS3(=O)=O)CCCCC1)C1(C)CCCCC1)C2(C)C [Compound 883-ez] | > 7.12

SMILES | pKi
C=CCNC(=O)C(=O)[C@H](CCC1CC1)NC(=O)[C@@H]1[C@@H]2[C@H](CN1C(=O)[C@@H](NC(=O)NC1([C@@H]3CCCS3(=O)=O)CCCCC1)C(C)(C)C)C2(Cl)Cl [Compound 883-f] | > 7.12
CCCNC(=O)C(=O)[C@H](CCC)NC(=O)[C@@H]1[C@@H]2[C@H](CN1C(=O)[C@@H](NC(=O)NC1(C3CCCS3(=O)=O)CCOCC1)C(C)(C)C)C2(C)C (some centres unmarked) [Compound 883-fb] | > 7.12
CCNC(=O)C(=O)[C@H](CCC1CC1)NC(=O)[C@@H]1[C@@H]2[C@H](CN1C(=O)[C@@H](NC(=O)NC1([C@H](C)S(=O)(=O)C(C)(C)C)CCCCC1)C1(C)CCCCC1)C2(C)C [Compound 883-fc] | > 7.12
CCC[C@H](NC(=O)[C@@H]1[C@@H]2[C@H](CN1C(=O)[C@@H](NC(=O)NC1(C3CCCS3(=O)=O)CCCCC1)C1(C)CCCCC1)C2(C)C)C(=O)C(=O)NC1CC1 (some centres unmarked) [Compound 883-fd] | > 7.12
CC(C)(C)[C@H](NC(=O)NC1([C@H]2CCCS2(=O)=O)CCCCC1)C(=O)N1C[C@H]2[C@@H]([C@H]1C(=O)N[C@@H](CCC1CC1)C(=O)C(=O)NC1CC1)C2(Cl)Cl [Compound 883-g] | > 7.12
CC(C)(C)[C@H](NC(=O)NC1([C@@H]2CCCS2(=O)=O)CCCCC1)C(=O)N1C[C@H]2[C@@H]([C@H]1C(=O)N[C@@H](CCC1CC1)C(=O)C(=O)NC1CC1)C2(Cl)Cl [Compound 883-h] | > 7.12
C=CCNC(=O)C(=O)[C@H](CC1CC1)NC(=O)[C@@H]1[C@@H]2[C@H](CN1C(=O)[C@@H](NC(=O)NC1([C@H]3CC(C)(C)CCS3(=O)=O)CCCCC1)C(C)(C)C)C2(C)C [Compound 883-i] | > 7.12
C=CCNC(=O)C(=O)[C@H](CCCC)NC(=O)[C@@H]1[C@@H]2[C@H](CN1C(=O)[C@@H](NC(=O)NC1([C@H]3CC(C)(C)CCS3(=O)=O)CCCCC1)C(C)(C)C)C2(C)C [Compound 883-j] | > 7.12
CCCC[C@H](NC(=O)[C@@H]1[C@@H]2[C@H](CN1C(=O)[C@@H](NC(=O)NC1([C@H]3CC(C)(C)CCS3(=O)=O)CCCCC1)C(C)(C)C)C2(C)C)C(=O)C(=O)NC1CC1 [Compound 883-k] | > 7.12
CC1(C)CCS(=O)(=O)[C@@H](C2(NC(=O)N[C@H](C(=O)N3C[C@H]4[C@@H]([C@H]3C(=O)N[C@@H](CCC3CC3)C(=O)C(=O)NC3CC3)C4(C)C)C(C)(C)C)CCCCC2)C1 [Compound 883-l] | > 7.12
C=CCNC(=O)C(=O)[C@H](CCCC)NC(=O)[C@@H]1[C@@H]2[C@H](CN1C(=O)[C@@H](NC(=O)NC1([C@H]3CCS3(=O)=O)CCCCC1)C(C)(C)C)C2(C)C [Compound 883-m] | > 7.12
CCCC[C@H](NC(=O)[C@@H]1[C@@H]2[C@H](CN1C(=O)[C@@H](NC(=O)NC1([C@H]3CCS3(=O)=O)CCCCC1)C(C)(C)C)C2(C)C)C(=O)C(=O)NC1CC1 [Compound 883-n] | > 7.12
C=CCNC(=O)C(=O)[C@H](CC1CC1)NC(=O)[C@@H]1[C@@H]2[C@H](CN1C(=O)[C@@H](NC(=O)NC1([C@H]3CCS3(=O)=O)CCCCC1)C(C)(C)C)C2(C)C [Compound 883-o] | > 7.12
CCC[C@H](NC(=O)[C@@H]1[C@@H]2[C@H](CN1C(=O)[C@@H](NC(=O)NC1([C@H]3CCS3(=O)=O)CCCCC1)C(C)(C)C)C2(C)C)C(=O)C(=O)NC1CC1 [Compound 883-p] | > 7.12
C=CCNC(=O)C(=O)[C@H](CC1CC1)NC(=O)[C@@H]1[C@@H]2[C@H](CN1C(=O)[C@@H](NC(=O)NC1(C3OCCS3(=O)=O)CCCCC1)C(C)(C)C)C2(C)C (some centres unmarked) [Compound 883-q] | > 7.12
C=CCNC(=O)C(=O)[C@H](CCC)NC(=O)[C@@H]1[C@@H]2[C@H](CN1C(=O)[C@@H](NC(=O)NC1(C3OCCS3(=O)=O)CCCCC1)C(C)(C)C)C2(C)C (some centres unmarked) [Compound 883-s] | > 7.12
CCC[C@H](NC(=O)[C@@H]1[C@@H]2[C@H](CN1C(=O)[C@@H](NC(=O)NC1(C3OCCS3(=O)=O)CCCCC1)C(C)(C)C)C2(C)C)C(=O)C(=O)NC1CC1 (some centres unmarked) [Compound 883-u] | > 7.12
C=CCNC(=O)C(=O)[C@H](CCC1CC1)NC(=O)[C@@H]1[C@@H]2[C@H](CN1C(=O)[C@@H](NC(=O)NC1(C3CCCCS3(=O)=O)CCCCC1)C1(C)CCCCC1)C2(C)C (some centres unmarked) [Compound 883-x] | > 7.12
C=CCNC(=O)C(=O)[C@H](CCC1CC1)NC(=O)[C@@H]1[C@@H]2[C@H](CN1C(=O)[C@@H](NC(=O)NC1([C@H]3CCCS3(=O)=O)CCCCC1)C1CCCCC1)C2(C)C [Compound 883-y] | > 7.12
C=CCNC(=O)C(=O)[C@H](CCCC)NC(=O)[C@@H]1[C@@H]2[C@H](CN1C(=O)[C@@H](NC(=O)NC1([C@H]3CCCS3(=O)=O)CCCCC1)C1CCCCC1)C2(C)C [Compound 883-z] | > 7.12

same assay, conditions: Table 4; read-out: Ki* range

SMILES | pKi
CC(C)(C)[C@H](NC(=O)N[C@H](CS(=O)(=O)NCCCCl)C(C)(C)C)C(=O)N1C[C@H]2[C@@H]([C@H]1C(=O)NC(CC1CCC1)C(=O)C(N)=O)C2(C)C (some centres unmarked) [Compound 1000] | > 7.12
C=CCNC(=O)C(=O)C(CC1CC1)NC(=O)[C@@H]1[C@@H]2[C@H](CN1C(=O)[C@@H](NC(=O)N[C@H](CS(=O)(=O)NCCCCl)C(C)(C)C)C(C)(C)C)C2(C)C (some centres unmarked) [Compound 1001] | 6.60 to 7.12
C=CCNC(=O)C(=O)C(CCC)NC(=O)[C@@H]1[C@@H]2[C@H](CN1C(=O)[C@@H](NC(=O)N[C@H](CS(=O)(=O)NC(C)(C)C)C(C)C)C(C)(C)C)C2(C)C (some centres unmarked) [Compound 1002] | < 6.60
